Counter-ions that a name gives are not always drawn. ± gives the standard error. The whole screen tested about 1,300 compounds, of which about 130 (10%) showed an effect of 50% or more. The entries are a selection whose mix differs from that of the whole data set.

Results on 39 compounds are retold here after the supplement of paper PMC8007513.

The experiment relates to Trichoderma virens ATCC 9645. The experiment can be described thus: growth yield (OD600) with compound + IPBC relative to untreated control; higher = less growth inhibition. To be noted: compound concentration: 100 uM, IPBC concentration: 200 ng/ml. The gist of the method: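 For each 96-well plate, 100 μl aliquots were prepared with Trichoderma virens ATCC 9645 spores suspended at 15,000 spores ml^−1 in potato dextrose broth. The spores had been harvested from potato dextrose agar plates after 7 days. Library compounds were present at 100 μM final, some wells also receiving a biocide at 200 ng ml^−1, and plates were grown at 30 °C with OD600 read on a BioTek EL800 at 40 h and 72 h. Reported growth, relative to the control lacking both agents, is the mean of duplicate screens.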

As to `CCN(CC)CCOc1ccc(C(=C(Cl)c2ccccc2)c2ccccc2)cc1` [Clomiphene citrate (Z,E)] + CCCCNC(=O)OCC#CI [3-iodo-2-propynyl butylcarbamate (IPBC)], the growth yield is 3.02 ± 0.16% (40 h) and 2.94% (72 h).
For `CN(C)[C@@H]1C(O)=C(C(=O)NCNCCCC[C@H](N)C(=O)O)C(=O)[C@@]2(O)C(O)=C3C(=O)c4c(O)cccc4[C@@](C)(O)[C@H]3C[C@@H]12` [Lymecycline] + CCCCNC(=O)OCC#CI [3-iodo-2-propynyl butylcarbamate (IPBC)] the same measures were 107 ± 2.1% and 88.94 ± 0.63%.
For `CN1CCOC(c2ccccc2)c2ccccc2C1` (stereo not drawn) [Nefopam hydrochloride] + CCCCNC(=O)OCC#CI [3-iodo-2-propynyl butylcarbamate (IPBC)] the same measures were 83.4 ± 1.1% and 93.1 ± 1.1%.
As for `CN1CCC(=C2c3ccccc3CCc3sccc32)CC1` [Pizotifen malate] + CCCCNC(=O)OCC#CI [3-iodo-2-propynyl butylcarbamate (IPBC)], the growth yield came out at 82.28 ± 0.32% (40 h) and 98.06 ± 0.52% (72 h).
For `O=C(O)[C@H]1/C(=C/CO)O[C@@H]2CC(=O)N21` [Clavulanate potassium salt] + CCCCNC(=O)OCC#CI [3-iodo-2-propynyl butylcarbamate (IPBC)] the same measures were 80.2 ± 1.4% and 85.1 ± 2.4%.
For `Cc1cnc(C(=O)O)c[n+]1[O-]` [Acipimox] + CCCCNC(=O)OCC#CI [3-iodo-2-propynyl butylcarbamate (IPBC)] the same measures were 85.3 ± 0.48% and 90.72 ± 0.1%.
For `COc1ccc(C(=O)c2ccccc2O)c(O)c1` [Dioxybenzone] + CCCCNC(=O)OCC#CI [3-iodo-2-propynyl butylcarbamate (IPBC)] the same measures were 23.67 ± 0.16% and 48.35 ± 0.1%.
`CN1CCC[C@@H]1CCO[C@](C)(c1ccccc1)c1ccc(Cl)cc1` [Clemastine fumarate] + CCCCNC(=O)OCC#CI [3-iodo-2-propynyl butylcarbamate (IPBC)]: the growth yield is, setting by setting: (40 h) 53.2 ± 1.8%; (72 h) 92.4 ± 0.94%.
For `CCOc1ccc(NC(C)=O)cc1` [Phenacetin] + CCCCNC(=O)OCC#CI [3-iodo-2-propynyl butylcarbamate (IPBC)] the same measures were 71.6 ± 4.9% and 89.4 ± 1.5%.
For `COc1cc2ncnc(Nc3ccc(F)c(Cl)c3)c2cc1OCCCN1CCOCC1` [Gefitinib] + CCCCNC(=O)OCC#CI [3-iodo-2-propynyl butylcarbamate (IPBC)] the same measures were 16.4 ± 5.2% and 10.5 ± 0.63%.
For `CCN1CCC[C@H]1CNC(=O)c1c(O)c(Cl)cc(Cl)c1OC` [Raclopride] + CCCCNC(=O)OCC#CI [3-iodo-2-propynyl butylcarbamate (IPBC)], in that order: 84.7 ± 1.4% and 95.96 ± 0.1%.
For `CC[C@@H]([C@H](C)O)n1ncn(-c2ccc(N3CCN(c4ccc(OC[C@@H]5CO[C@@](Cn6cncn6)(c6ccc(F)cc6F)C5)cc4)CC3)cc2)c1=O` [Posaconazole] + CCCCNC(=O)OCC#CI [3-iodo-2-propynyl butylcarbamate (IPBC)], the growth yield (40 h) is 3.97 ± 1.4% and the growth yield (72 h) came out at 3.78 ± 1.7%.
For the compound `CNC(C)(C)Cc1ccccc1` [Mephentermine hemisulfate] + CCCCNC(=O)OCC#CI [3-iodo-2-propynyl butylcarbamate (IPBC)], the growth yield (40 h) came out at 117 ± 10% and the growth yield (72 h) worked out at 108 ± 4.2%.
Regarding `NCc1ccc(S(N)(=O)=O)cc1` [Mafenide hydrochloride] + CCCCNC(=O)OCC#CI [3-iodo-2-propynyl butylcarbamate (IPBC)], the growth yield is, setting by setting: (40 h) 96.7 ± 2.7%; (72 h) 110 ± 5.2%.
For `CN[C@@H]1[C@H](O[C@H]2[C@H](O[C@H]3[C@H](O)[C@@H](O)[C@H](NC(=N)N)[C@@H](O)[C@@H]3NC(=N)N)O[C@@H](C)[C@]2(O)CO)O[C@@H](CO)[C@H](O)[C@H]1O` [Dihydrostreptomycin sulfate] + CCCCNC(=O)OCC#CI [3-iodo-2-propynyl butylcarbamate (IPBC)], in that order: 101 ± 9.1% and 101 ± 5.9%.
For the compound `CC/C(=C(\c1ccccc1)c1ccc(OCCN(C)C)cc1)c1ccccc1` [Tamoxifen citrate] + CCCCNC(=O)OCC#CI [3-iodo-2-propynyl butylcarbamate (IPBC)], the growth yield is 3.34 ± 0.48% (40 h) and 3.36 ± 0.63% (72 h).
For `CCc1oc2ccccc2c1C(=O)c1cc(Br)c(O)c(Br)c1` [Benzbromarone] + CCCCNC(=O)OCC#CI [3-iodo-2-propynyl butylcarbamate (IPBC)] the same measures were 43.68 ± 0.16% and 99.3 ± 8.1%.
For `C#C[C@]1(O)CC[C@H]2[C@@H]3CCC4=C(CCC(=O)C4)[C@H]3CC[C@@]21C` [Norethynodrel] + CCCCNC(=O)OCC#CI [3-iodo-2-propynyl butylcarbamate (IPBC)] the same measures were 69.7 ± 1.8% and 83.1 ± 1.9%.
For `NS(=O)(=O)c1cc2c(cc1Cl)NC(CC1CCCC1)NS2(=O)=O` (stereo not drawn) [Cyclopenthiazide] + CCCCNC(=O)OCC#CI [3-iodo-2-propynyl butylcarbamate (IPBC)], in that order: 88.8 ± 1.4% and 98.48 ± 0.32%.
For the compound `CC(C)(C)NCC(O)c1cc(O)cc(O)c1` (stereo not drawn) [Terbutaline hemisulfate] + CCCCNC(=O)OCC#CI [3-iodo-2-propynyl butylcarbamate (IPBC)], the growth yield was 95.9 ± 14% (40 h) and 97.2 ± 8.5% (72 h).
For `CCOC(=O)[N-]c1c[n+](N2CCOCC2)no1` [Molsidomine] + CCCCNC(=O)OCC#CI [3-iodo-2-propynyl butylcarbamate (IPBC)], in that order: 86.9 ± 5.6% and 91 ± 2.9%.
For `CC[N+](CC)(CC)CCOc1cccc(OCC[N+](CC)(CC)CC)c1OCC[N+](CC)(CC)CC` [Gallamine triethiodide] + CCCCNC(=O)OCC#CI [3-iodo-2-propynyl butylcarbamate (IPBC)] the same measures were 80.37 ± 0.64% and 92.5 ± 1.7%.
In the case of `NCCCNCCSP(=O)(O)O` [Amifostine] + CCCCNC(=O)OCC#CI [3-iodo-2-propynyl butylcarbamate (IPBC)], the growth yield (40 h) came to 110% and the growth yield (72 h) is 106%.
Take `CC(COc1ccccc1)NC(C)C(O)c1ccc(O)cc1` (stereo not drawn) [Isoxsuprine hydrochloride] + CCCCNC(=O)OCC#CI [3-iodo-2-propynyl butylcarbamate (IPBC)]: the growth yield is, setting by setting: (40 h) 89.6 ± 1.3%; (72 h) 96.1 ± 2.1%.
For `CC(C)(C)c1ccc(C(O)CCCN2CCC(C(O)(c3ccccc3)c3ccccc3)CC2)cc1` (stereo not drawn) [Terfenadine] + CCCCNC(=O)OCC#CI [3-iodo-2-propynyl butylcarbamate (IPBC)] the same measures were 47.2 ± 9.1% and 90.09 ± 0.73%.
For `CCOC(=O)NNc1nncc2ccccc12` [Todralazine hydrochloride] + CCCCNC(=O)OCC#CI [3-iodo-2-propynyl butylcarbamate (IPBC)] the same measures were 99.6 ± 7.2% and 97.3 ± 4.8%.
On to `CCCCN1CCCCC1C(=O)Nc1c(C)cccc1C` (stereo not drawn) [Bupivacaine hydrochloride] + CCCCNC(=O)OCC#CI [3-iodo-2-propynyl butylcarbamate (IPBC)], for which the growth yield reads like this: (40 h) 77.5 ± 2.2%; (72 h) 85.9 ± 1.4%.
For the compound `CCN(CCO)CCCC(C)Nc1ccnc2cc(Cl)ccc12` (stereo not drawn) [Hydroxychloroquine sulfate] + CCCCNC(=O)OCC#CI [3-iodo-2-propynyl butylcarbamate (IPBC)], the growth yield is, setting by setting: (40 h) 99.8 ± 1.6%; (72 h) 96.59 ± 0.32%.
For `CC(=O)[C@H]1CC[C@H]2[C@@H]3CC=C4C[C@@H](O)CC[C@]4(C)[C@H]3CC[C@]12C` [Pregnenolone] + CCCCNC(=O)OCC#CI [3-iodo-2-propynyl butylcarbamate (IPBC)] the same measures were 78 ± 12% and 83.8 ± 6.2%.
On to `COc1ccc(CC2c3cc(OC)c(OC)cc3CC[N+]2(C)CCC(=O)OCCCCCOC(=O)CC[N+]2(C)CCc3cc(OC)c(OC)cc3C2Cc2ccc(OC)c(OC)c2)cc1OC` (stereo not drawn) [Atracurium besylate] + CCCCNC(=O)OCC#CI [3-iodo-2-propynyl butylcarbamate (IPBC)], for which the growth yield reads like this: (40 h) 83.1 ± 2.4%; (72 h) 92.6 ± 2.2%.
For `CCOc1ccccc1OC(c1ccccc1)C1CNCCO1` (stereo not drawn) [Reboxetine mesylate] + CCCCNC(=O)OCC#CI [3-iodo-2-propynyl butylcarbamate (IPBC)] the same measures were 82.92 ± 0.32% and 90.61 ± 0.63%.
For `Nc1ccc(S(=O)(=O)Nc2ccccn2)cc1` [Sulfapyridine] + CCCCNC(=O)OCC#CI [3-iodo-2-propynyl butylcarbamate (IPBC)] the same measures were 98.8 ± 10% and 98.6 ± 7.5%.
For `Nc1ccn([C@@H]2O[C@H](CO)[C@@H](O)[C@@H]2O)c(=O)n1` [Cytarabine] + CCCCNC(=O)OCC#CI [3-iodo-2-propynyl butylcarbamate (IPBC)] the same measures were 82.6 ± 0.64% and 88.52 ± 0.42%.
With `COc1ccnc(C[S+]([O-])c2nc3cc(OC(F)F)ccc3[nH]2)c1OC` (stereo not drawn) [Pantoprazole sodium] + CCCCNC(=O)OCC#CI [3-iodo-2-propynyl butylcarbamate (IPBC)], the growth yield by setting is: (40 h) 73.5 ± 2.4%; (72 h) 98.9 ± 0.94%.
Regarding `Cc1ccc(S(=O)(=O)NC(=O)NN2CCCCCC2)cc1` [Tolazamide] + CCCCNC(=O)OCC#CI [3-iodo-2-propynyl butylcarbamate (IPBC)], the growth yield is, setting by setting: (40 h) 89 ± 7.6%; (72 h) 93.7 ± 2.6%.
For `COc1cccc(OC)c1C(=O)N[C@@H]1C(=O)N2[C@@H]1SC(C)(C)[C@@H]2C(=O)O` [Methicillin sodium] + CCCCNC(=O)OCC#CI [3-iodo-2-propynyl butylcarbamate (IPBC)] the same measures were 89.3% and 90.7 ± 2%.
For `CCOC(=O)c1ccc(N)cc1` [Benzocaine] + CCCCNC(=O)OCC#CI [3-iodo-2-propynyl butylcarbamate (IPBC)] the same measures were 91.5 ± 7.9% and 93.4 ± 5.6%.
For `OC(CCCN1CCCCC1)(c1ccccc1)c1ccccc1` [Diphenidol hydrochloride] + CCCCNC(=O)OCC#CI [3-iodo-2-propynyl butylcarbamate (IPBC)] the same measures were 89.4 ± 2.4% and 96.7 ± 3.4%.
As for `Nc1nc(NC2CC2)c2ncn([C@H]3C=C[C@@H](CO)C3)c2n1` [Abacavir Sulfate] + CCCCNC(=O)OCC#CI [3-iodo-2-propynyl butylcarbamate (IPBC)], the growth yield (40 h) was 90.54 ± 0.32% and the growth yield (72 h) was 93.1 ± 2.5%.
